According to PubChem BioAssay AID686970 (National Center for Advancing Translational Sciences (NCATS), 2013):
In all, about 360,000 compounds went through this assay and about 6,000 (1.7%) were called active. Inconclusive results, whose numbers are uncertain, are shown with a selection of clear calls. Calls follow the shape of the dose curve; as a rule, active = well fitted cell-killing curve with a large enough effect; inconclusive = small, poorly fitted or top-dose-only effect, or effect the other way; inactive = flat fitted curve, though single readings scatter. Potencies of inconclusive entries are left out as doubtful fits.

Assay: qHTS for induction of synthetic lethality in tumor cells producing 2HG: qHTS for the HT-1080-NT fibrosarcoma cell line;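 also: NT is the 2HG producing partner of a matched IDH1 knockdown line; nearly all actives have a fitted effect of over 55% in size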;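 as to activity, negative = less viability: 0% = DMSO-treated cells and -100% = media-only wells without cells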
Settings: HT-1080-NT fibrosarcoma viability, CellTiter-Glo ATP luminescence, 48 h; activity, negative = less viability: at 46.1 µM (top of the series) unless noted
Summary of the method: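 Compounds were tested in concentration-response format on HT-1080-NT cells for 48 hours at 37 degrees C. Cell viability came from CellTiter-Glo luminescence; curves were classified by r2, response magnitude and activity.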
Potency is read from the fitted curve at half-maximal effect; tags tell the direction and shape of the fitted curve.

Row | SMILES | Potency | activity, negative = less viability
1 | Cc1cc(C)cc(C(O)c2ncc(-c3cccc(C(F)(F)F)c3)[nH]2)c1 (configuration not stated) | inconclusive [cytotoxic, single point] | 
2 | C=CCn1c(C)cc(C(=O)COc2ccc(C)nc2[N+](=O)[O-])c1C | inconclusive [cytotoxic, single point] | 
3 | COc1ccc(C(O)c2nc(-c3cncnc3)cs2)cc1 (configuration not stated) | inconclusive [rising, single point] | 
4 | Oc1ccc(N=Nc2ccc3c(c2)OCCO3)c2cccnc12 | inconclusive [cytotoxic, partial curve] | 
5 | Cc1nc(N)sc1N=Nc1ccc(F)cc1 | inconclusive [cytotoxic, single point] | 
6 | CCOc1ccccc1NC(=O)/C=C/c1ccccc1[N+](=O)[O-] | inactive | 
7 | Nc1nc(CN2CCN(Cc3ccccc3)CC2)nc(Nc2ccccc2)n1 | inconclusive [cytotoxic, single point] | 
8 | CC(=O)/C(=C/c1ccccc1)C(=O)Nc1ccccc1C | inconclusive [cytotoxic, single point] | 
9 | CCC(=O)Nc1cccc(C(=O)/C=C/c2ccccc2)c1 | inconclusive [cytotoxic, single point] | 
10 | CCn1c(SCC(=O)Nc2cc(C)on2)nc2sc3c(c2c1=O)CCCC3 | active: 10 µM | 
11 | CC(=O)CCc1ccc(Oc2nc(-c3cccnc3)nc3ccccc23)cc1 | inconclusive [cytotoxic, single point] | 
12 | OCC1(CCOc2ccccc2)CCN(Cc2ccccc2C(F)(F)F)CC1 | inconclusive [cytotoxic, single point] | 
13 | O=[N+]([O-])c1cccnc1N/N=C/c1ccccc1O | inconclusive [cytotoxic, full curve] | 
14 | Cc1ccc(-c2nc(C=Nc3ccc(O)cc3)c(O)o2)cc1 | inconclusive [cytotoxic, partial curve] | 
15 | Cc1cc(OC(=O)c2ccc(S(=O)(=O)N3CCCCC3)cc2)c([N+](=O)[O-])c(=O)[nH]1 | inactive | 
16 | CC(/C=C/c1ccccc1)=N\NC(=O)c1ccc(Br)cc1 | inactive | 
17 | O=C(Nc1ccc(OC(F)(F)F)cc1)c1ccc2c(c1)no[n+]2[O-] | active: 18.4 µM | 
18 | CCNC(=S)Nc1ccc2c(c1)c(=O)n(C)n2Cc1ccc(Cl)cc1 | inactive | 
19 | C[C@H](CO)N1C[C@H](C)[C@H](CN(C)Cc2cccc(O)c2)OCc2ccccc2-c2c(n(C)c3ccccc23)C1=O | inconclusive [cytotoxic, single point] | 
20 | Cc1sc(NC(=O)C2C3CCC(O3)C2C(=O)O)nc1-c1ccc(CC(C)C)cc1 (configuration not stated) | inconclusive [cytotoxic, partial curve] | 
21 | CC1(C)CC(=O)C=C(c2ccc(COC(=O)C3CC3)cc2)C1=O | inactive | 
22 | COC(=O)c1ccc(/C=C2\SC(=S)N(CCCC(=O)NCCCN3CCOCC3)C2=O)cc1 | inconclusive [cytotoxic, partial curve] | 
23 | CCCCCCCCN1C(=O)[C@H](CC(=O)NCCCOCCCC)C[C@@]2(C(=O)OCC)CCCC=C12 | inconclusive [cytotoxic, single point] | 
24 | CCOc1cc(S(=O)(=O)NCc2ccncc2)ccc1Cl | inconclusive [cytotoxic, single point] | 

Row | SMILES | Potency | activity, negative = less viability
25 | O=C1CCCCC/C1=N/Nc1ccc(OCc2ccccc2)cc1 | inconclusive [cytotoxic, partial curve] | 
26 | CCOc1ccccc1C(=O)NC(C)c1ccc2c(c1)OCO2 (configuration not stated) | inconclusive [cytotoxic, single point] | 
27 | O=C(N/N=C/c1c(O)n(-c2ccccc2Cl)c(=O)c2ccccc12)C1COc2ccccc2O1 (configuration not stated) | inconclusive [cytotoxic, single point] | 
28 | CCCc1c(-c2cccc(F)c2)ncn1Cc1ccccc1OC | inconclusive [cytotoxic, single point] | 
29 | COc1ccc(C(C)(C)C)cc1NC(=O)C1CC=CCC1C(=O)O (configuration not stated) | inactive | 
30 | CCCCNc1nc(NCc2ccccc2)nc2ccccc12 | inconclusive [cytotoxic, single point] | 
31 | CCN=c1scc(C)n1/N=C/c1cc(Br)c(O)c(Br)c1 | inconclusive [cytotoxic, partial curve] | 
32 | COc1cccc(C(NC(C)=O)c2nc(-c3ccoc3)cs2)c1 (configuration not stated) | inactive | 
33 | O=C(C1CCCN(CCCc2ccccc2)C1)N1CCCCCC1 (configuration not stated) | inactive | 
34 | COc1cc(NC(=O)Nc2nc(C(N)Cc3ccc(C(F)(F)F)cc3)cs2)cc(OC)c1OC (configuration not stated) | active: 20.6 µM | 
35 | COc1ccccc1CNC(=O)COC(=O)c1cccc(S(=O)(=O)N2CCCC2)c1 | inactive | 
36 | Cc1cccnc1NC(=O)c1ccc(Cl)c(S(=O)(=O)N2CCCC2)c1 |  | inconclusive: 30.1%
37 | NC(=O)c1cccc(Nc2nc(C(N)C3CCCCC3)cs2)n1 (configuration not stated) | inconclusive [cytotoxic, partial curve] | 
38 | OC(CNC1CCCC1)COc1ccc(-c2ccccc2)cc1 (configuration not stated) | inconclusive [cytotoxic, single point] | 
39 | O=C(CCNC(=O)c1ccco1)Nc1ccc(OC(F)F)c(Cl)c1 | inactive | 
40 | COc1ccc(OCCn2cc(/C=C(\C#N)C(=O)NCc3ccco3)c3ccccc32)cc1 |  | inconclusive: -21.6% [cytotoxic]
41 | O=Cc1cc2ccccc2nc1SCCCF | active: 16.4 µM | 
42 | O=[N+]([O-])c1cccc(S(=O)(=O)[N-]c2nc3ccccc3nc2-n2cc[n+](Cc3ccccc3)c2)c1 | inconclusive [cytotoxic, single point] | 
43 | CCOC(=O)N1C/C(=C\c2ccccc2)C(=O)/C(=C/c2ccccc2)C1 | inconclusive [cytotoxic, partial curve] | 
44 | O=C1CSC(=S)N1/N=C/c1cc(Br)c(O)c(Br)c1 | inactive | 
45 | COc1ccc(CCNC(=O)c2cc(-c3cc(Cl)ccc3O)n[nH]2)cc1OC | inconclusive [cytotoxic, partial curve] | 
46 | COc1ccccc1C(=O)NC(C)c1cccc2ccccc12 (configuration not stated) | inconclusive [cytotoxic, partial curve] | 
47 | Cc1ccc(C(=O)/C=C/c2c[nH]c3ccccc23)cc1 | inconclusive [cytotoxic, single point] | 
48 | Cc1nn(Cc2c(Cl)cccc2Cl)c(C)c1NC(=O)c1cn(-c2ccccc2)nc1-c1ccccc1 | active: 3.66 µM | 

Row | SMILES | Potency | activity, negative = less viability
49 | CCOC(=O)CN(C(=O)CSc1nnc(-c2ccc(OC)c(OC)c2)o1)c1ccc(F)cc1 | inconclusive [cytotoxic, full curve] | 
50 | O=C(NC1CCCC1)C1CCC(=O)N1C1CCCCC1 (configuration not stated) | inconclusive [rising, single point] | 
51 | Cc1nc(N)nc(N)c1/C=C/C(C)(C)c1ccc(Cl)cc1 | active: 0.0291 µM | 
52 | COC(=O)N/N=C/c1cccnc1 | inconclusive [rising, full curve, poor fit] | 
53 | O=C(NCCN1CCCCC1)/C(=C/c1ccco1)NC(=O)c1ccccc1 | inconclusive [rising, partial curve, poor fit] | 
54 | COc1ccc(COC(=O)C2=C(C)NC(=O)NC2c2cccc(Br)c2)cc1 (configuration not stated) | inconclusive [cytotoxic, single point] | 
55 | O=C(NC1CCS(=O)(=O)C1)c1cccc(Br)c1 (configuration not stated) | inactive | 
56 | C=CC[C@]12CCc3ccccc3C1N(c1ccc(C(=O)OCC)cc1)C2=O (some centres not stated) | inconclusive [cytotoxic, partial curve] | 
57 | COCCNC(=O)C12CC3CC(C1)CC(c1ccccc1)(C3)C2 | inactive | 
58 | COC(=O)NCC(c1cccnc1)N1CCN(c2ccccc2)CC1 (configuration not stated) | inactive | 
59 | COc1cc(/C=N/NC(=O)C(=O)/C=C2\NC(C)(C)Cc3ccccc32)ccc1O | inconclusive [cytotoxic, single point] | 
60 | C#CCN1C(C)=C(C(=O)OC)C(c2cccc([N+](=O)[O-])c2)C(C(=O)OCC)=C1C (configuration not stated) | inconclusive [rising, single point] | 
61 | CCN1CCN(c2nc(Nc3ccc(C)c(C)c3)nc(N)c2[N+](=O)[O-])CC1 | inconclusive [cytotoxic, partial curve] | 
62 | OCc1cc(C(O)CNCCCCCCOCCCCc2ccccc2)ccc1O (configuration not stated) | active: 16.4 µM | 
63 | CCC1CCCCN1S(=O)(=O)c1ccc(S(=O)(=O)N2CCN(S(=O)(=O)CC)CC2)cc1 (configuration not stated) | inconclusive [cytotoxic, single point] | 
64 | Cc1nc2ccccc2c2c(N)cccc12 | inactive | 
65 | COc1ccc2oc(=N)c(C(=O)Nc3ccc(Cl)cc3)cc2c1 | inactive | 
66 | COc1ccc(C2/C=C\CNCC(=O)N2Cc2ccc(F)cc2)cc1 (configuration not stated) | inactive | 
67 | COC(=O)COc1cccc2c(=O)n(CC(=O)NCc3ccc(F)cc3)ccc12 | inconclusive [cytotoxic, full curve] | 
68 | Cc1cccc(N2CCN(S(=O)(=O)c3cc(-c4cc(C)no4)ccc3C)CC2C)c1 (configuration not stated) |  | inconclusive: -30.5% [cytotoxic]
69 | COc1ccc(F)cc1-c1cc(NC=O)c2ncc(-c3cccc(C(F)(F)F)c3)n2c1 |  | inconclusive: -42.5%
70 | Cc1noc(/C=C/N(C)C)c1S(=O)(=O)NC1CCCCC1 | inconclusive [cytotoxic, single point] | 
71 | Cn1c(O)c(N=NC(=O)CNC(=O)c2cccnc2)c2ccccc21 | inactive | 
72 | Cc1nc(N)nc(N(C)c2ccccc2)c1Br | inconclusive [cytotoxic, single point] | 
